PubChem BioAssay AID1159614 (National Center for Advancing Translational Sciences (NCATS), 2016)
Screen size: about 45,000 compounds; about 65 (0.1%) were called active. Calls follow the shape of the dose curve; as a rule, active = well fitted activation curve with a large enough effect; inconclusive = small, poorly fitted or top-dose-only effect; inactive = no such curve, though single readings can be large or run the other way. The list shows a part of the results.

Molecular target: Galactocerebrosidase (Homo sapiens) (UniProt P54803)
Sequence of UniProt P54803 (P54803 whole entry, looked up): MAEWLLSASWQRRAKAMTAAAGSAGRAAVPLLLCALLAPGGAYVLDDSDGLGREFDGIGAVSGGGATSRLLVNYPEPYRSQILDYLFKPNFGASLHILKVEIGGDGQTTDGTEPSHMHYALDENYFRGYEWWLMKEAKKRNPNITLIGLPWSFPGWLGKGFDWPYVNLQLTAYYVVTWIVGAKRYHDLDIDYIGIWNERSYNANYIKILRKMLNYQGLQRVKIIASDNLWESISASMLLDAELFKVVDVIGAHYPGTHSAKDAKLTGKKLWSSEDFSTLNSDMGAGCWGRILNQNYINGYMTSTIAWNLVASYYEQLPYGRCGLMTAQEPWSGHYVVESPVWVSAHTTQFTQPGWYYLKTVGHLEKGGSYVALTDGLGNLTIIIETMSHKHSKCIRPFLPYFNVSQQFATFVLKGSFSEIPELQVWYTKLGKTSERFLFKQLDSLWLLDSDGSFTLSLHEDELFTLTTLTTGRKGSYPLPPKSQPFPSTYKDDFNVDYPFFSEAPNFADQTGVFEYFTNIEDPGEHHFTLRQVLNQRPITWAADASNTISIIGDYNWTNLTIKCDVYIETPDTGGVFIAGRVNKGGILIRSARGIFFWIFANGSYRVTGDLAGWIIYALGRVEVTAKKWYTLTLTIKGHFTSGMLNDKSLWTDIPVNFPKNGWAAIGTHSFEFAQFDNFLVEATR
Assay: A Novel Cell-Based Assay to Identify Small Molecules for B -Galactocerebrosidase; also: 0% is about no effect; nearly all actives have a fitted effect of over 65% in size
Conditions: 145M-Twi-hGALC-G270D cells (Twitcher mouse brain line with human GALC G270D), HMU-beta-Gal fluorescence, 48 h; series mostly up to 57.5 µM; activation: at the top concentration
Summary of the method: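 Mutant human GALC (G270D), stably expressed in a Twitcher mouse brain cell line lacking endogenous GALC, is measured in live-treated cells via 6-hexadecanoylamino-4-methylumbelliferyl-β-galactoside hydrolysis (0.1 mM final, pH 5.2) with fluorescent detection.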

activation, inactive:
CCOCCCn1c(SCC(=O)Nc2ccccc2OC)nc2c(oc3ccccc32)c1=O -14%, CCOc1ccccc1N1CC(c2nc3ccccc3n2CCCCOc2ccccc2)CC1=O (configuration not stated) -5.04%, S=c1[nH]c2ccccc2s1 -14.8% [at 114 µM], CC(NC(=O)c1c(O)nc2ccccn2c1=O)c1ccccc1 (configuration not stated) 4.37%, COc1ccc(-c2cn3c(n2)sc2cc(C(=O)NCc4ccccc4)ccc23)cc1 -10.8%, Cc1ccc(CNc2c(C)c(C)nc3nncn23)cc1 -1.18%, COc1ccc(OC)c(C2CC(=O)Nc3ccc4ccccc4c32)c1 (configuration not stated) -25.4%, CCN(C(=O)CCS(=O)(=O)c1cc(Br)cc2c1N(C(=O)C1CC1)CC2)c1cccc(C)c1 -17.9%, COc1ccc(Cc2nc3ccc(C(=O)NCCc4ccc(Cl)cc4)cc3o2)cc1 -17.3%, O=C(NCC(c1ccc2c(c1)OCO2)N1CCOCC1)c1ccc(F)cc1 (configuration not stated) -13.2%, CCCC(=O)N(c1ccc2oc(-c3ccccc3)c(C(=O)OCC)c2c1)S(=O)(=O)c1ccc(C)cc1 -22.8%, COCCCNC(=O)Cn1c(=O)n(CCCC(=O)NCc2ccc(C)cc2)c(=O)c2ccccc21 -10.2%, CCCCN1CC(c2nc3ccccc3n2CCCCOc2c(C)cccc2C)CC1=O (configuration not stated) -57.6%, CC1=C(c2ccc(C)c(C)c2)S(=O)(=O)N=C1N1CCN(c2cccc(C(F)(F)F)c2)CC1 -0.593%, CCOc1ccc(-n2c(=O)c3c4c(sc3n(Cc3cccc(Cl)c3)c2=O)CCCC4)cc1 -10%, Cc1ccc(NC(=O)Cn2c(=O)n(-c3ccc(CC(=O)NCC4CCCO4)cc3)c(=O)c3ccccc32)cc1 (configuration not stated) -4.78%, CCn1cc(C(=O)N2CCN(c3ccccc3OC)CC2)c(=O)c2cc(S(=O)(=O)N3CCCCC3)ccc21 -6.51%, COc1ccc(-c2nn(-c3ccccc3)cc2C(=O)Nc2ccccc2OC)cc1 -7%, Cc1cccc(C(=O)Nc2ccccc2-c2nc(-c3ccccc3)no2)c1 -1.85%, CC(C)CN(c1ccccc1)S(=O)(=O)c1nnc(NC(=O)c2ccco2)s1 -37.5%, CCOc1ccc(Sc2cc(C(=O)NCCc3ccc(OC)c(OC)c3)c3ccccc3n2)cc1 -14.3%, CCn1c(=O)c2cc(C(=O)N(C)c3cc(C)ccc3C)sc2c2ccccc21 -27.6%, O=C(O)c1cccc(NC(=O)c2cccc(S(=O)(=O)Nc3cccc(C(=O)O)c3)c2)c1 -14.7%, CC(C)c1ccc(Nc2nc3ccc(C(=O)c4ccccc4)cc3n3cnnc23)cc1 -28.1%, Cn1cc(C(=O)NCc2ccc(F)cc2)c(=O)c2cc(S(=O)(=O)N3CCCCC3)ccc21 -12.6%, O=C(CCSCc1ccccc1F)N1CCN(c2ccc(F)cc2)CC1 -8.72%, COc1ccc(NC(=O)N2CCc3c(sc4c3CCCC4)C2c2ccc(F)cc2)cc1 (configuration not stated) -9.3%, COc1cc(OC)c(NC(=O)c2oc3ccc4c(c3c2C)C(=O)CC(C)(C)O4)cc1Cl -11.4%, COc1ccc(NC(=O)c2ccc3snnc3c2)cc1OC -15.2%, COc1cc(OC)cc(-n2c(=O)[nH]c3cc(C(=O)NCCc4ccc(C)cc4)ccc3c2=O)c1 -17.2%, CN(C)C(=O)c1ccc(S(=O)(=O)NCc2ccccc2Cl)s1 -12.2%, CCN(C(=O)c1sc2nc3n(c(=O)c2c1C)CCCCC3)c1ccccc1F -13.1%, CCc1ccc(CNC(=O)c2cc3c(=O)oc4ccc(C)cc4c3s2)cc1 -2.24%, Cc1ccc(NC(=O)Nc2nnc(N3CCCCC3)s2)c(C)c1 -3.5%, COc1ccc(-n2cc3c(c2-c2cccc(Br)c2)c(=O)n(C)c(=O)n3C)cc1OC -15.4%, COc1cccc(NC(=O)Cn2c(=O)n(Cc3ccccc3)c(=O)c3c4c(sc32)CN(C(C)=O)CC4)c1 -11.9%, COc1ccc(-c2cc(C(F)(F)F)nc(SCC(=O)NCc3ccc(F)cc3)n2)cc1 -12.3%, Cc1cc(C)cc(C(=O)Nc2ccc(-c3cn4cccnc4n3)cc2)c1 10.2%, COC(=O)c1ccccc1NC(=O)c1nc(SCc2ccccc2C)ncc1Cl -16.3%, COc1ccc(S(=O)(=O)NC2(C(F)(F)F)NC(=O)N(CCc3ccccc3)C2=O)cc1 (configuration not stated) 6.83%, CCCCCSc1nnc2c(n1)OC(c1ccc(C)s1)N(C(C)=O)c1ccccc1-2 (configuration not stated) -31.5%, Cc1c(Cl)cccc1N1CC(c2nc3ccccc3n2Cc2ccccc2F)CC1=O (configuration not stated) -14.9%, Oc1ccccc1-c1nc(/C=C/c2ccc(F)cc2)no1 -20%, Cc1cccc(N2CCN(C(=O)Nc3ccc(F)cc3)CC2C)c1 (configuration not stated) -23.7%, Cc1ccccc1NC(=O)Nc1nnc(N(C)Cc2ccccc2)s1 -9.63%, COc1ccccc1NC(=O)CN1C(=O)C(c2ccc(F)cc2)=NC1(C)C -8.87%, Cc1c(CNCCCc2ccccc2)c(C(=O)O)c(C)n1Cc1ccc(Cl)cc1 -7.11%, O=c1c2oc3ccccc3c2n(Cc2ccccc2F)c(=O)n1Cc1ccco1 -12.7%, CCOC(=O)NNc1nncc2ccccc12 -35.9%, Cc1cc(=O)[nH]c2nnc(SCc3cccc(F)c3)n12 -35.1%, Cc1ccc(Cn2cc(CCC(=O)NC3CCCCC3)c3ccccc32)cc1 0.741%, CCOc1ccc(-c2ccc(NS(=O)(=O)c3cc(C)ccc3OC)cc2)nn1 -2.47%, Cc1ccc(N2CCN(C(=O)c3nn(C)c4c3CS(=O)(=O)c3ccccc3-4)CC2C)cc1 (configuration not stated) -7.21%, Cc1cccc(NC(=O)Cn2c(=O)n(Cc3ccc4c(c3)OCO4)c(=O)c3ccccc32)c1 -2.08%, CCS(=O)(=O)c1c(Nc2ccc(F)c(Cl)c2)sc(C(=O)c2ccccc2)c1N -14.2%, COc1ccc(NC(=O)Cn2c(=O)oc3cc(S(=O)(=O)NC(C)C)ccc32)cc1OC -7.88%, CCOc1ccc(C(=O)c2cn(CC(=O)Nc3cc(OC)cc(OC)c3)c3ccc(F)cc3c2=O)cc1 10.7%, Cc1cccc(NC(=O)Cn2c(=O)n(Cc3ccc(C(=O)NCc4ccc5c(c4)OCO5)cc3)c(=O)c3ccccc32)c1 -17.7%, Cc1ccc(NC(=O)CSc2nc(-c3ccc(F)cc3)cc(C(F)(F)F)c2C#N)cc1 -13.5%, O=C(CCn1c(=O)c2cccn2c2ccc(F)cc21)NCc1ccccc1F -13.6%, CCNC(=O)CC1C(=O)N(c2ccccc2)C(=O)N1Cc1ccc(F)cc1 (configuration not stated) 0.236%, CCCSCCCNC(=O)C1CCN(C(=O)c2cc3sccc3n2C)CC1 -5.49%
